Results from PMC6451091.
The list shows a part of the results. Measured with an extract: partners may take part in the binding.

What follows are sequences tested on PU.1 (endogenous, THP-1 nuclear extract) + IRF8 (endogenous, THP-1 nuclear extract) (assay: nuclear extract protein-binding microarray (nextPBM)). Conditions: 20 mM HEPES pH 7.9, 100 mM NaCl, 1 mM DTT, 0.2 mg/mL BSA, 0.02% Triton X-100, 2% milk, 0.4 mg/mL salmon testes DNA; 1 h; temperature not stated; high values mean tight binding; double strand, one strand shown; sequences stand for … in GCCTAGCAC…GTGCTAGGTCTTGATTCGCTTGACGCTGCTG.
For TGGCAGAGGAAGTGAAACTA, the binding signal was 57.7 z-score.
Sequence AAAGAGAGGAAGTGAAACTC has a binding signal of 50.6 z-score.
GCAAAGGGGAAATGAAACTT gave a binding signal of 25.3 z-score.
Work on GATAAGAGGAACTGACAGCT yielded a binding signal of -0.164 z-score.
GATAAGAGGAACTGAAAGCT gave a binding signal of 6.11 z-score.
AAAAACAGGAAATGAAAGTA gave a binding signal of 30 z-score.
With TGTGAAAGGAAGTGAAACTG the binding signal was 40.9 z-score.
Sequence TGGCAGAGGAACTGAAACTA has a binding signal of 35.3 z-score.
CTCCAGAGGAAGTGAAACTT gave a binding signal of 43.6 z-score.
AAAAAAAGGAAATGGAAGTA gave a binding signal of 0.924 z-score.
Work on TAAACGAGGAACTGAAACCA yielded a binding signal of 25.8 z-score.
For GATAAGAGGAATTGAAAGCT, the binding signal was 0.846 z-score.
Work on AGAAAGAGGAAGCGAAACTC yielded a binding signal of 72.3 z-score.
CTGGCATGGAACTGAAACTC gave a binding signal of 10.2 z-score.
Work on GATTTGAGGAAATGAAACTT yielded a binding signal of 39.4 z-score.
Sequence TGCAACAGGAAGTGAAACCA has a binding signal of 56.9 z-score.
For CTGGGAGGGAACTGAAACTC, the binding signal was 11.5 z-score.
Work on TTGGAAAGGAAGTGAAACTG yielded a binding signal of 40.9 z-score.
TAAAAGAGGAACAGAAACTC gave a binding signal of 33.1 z-score.
Work on TGAGAGGAGTAGTGAAACCT yielded a binding signal of 10.2 z-score.
AAATTAAGGAACTGAAACTC showed a binding signal of 36.3 z-score.
For TAGAAGAGGAAGAGAAACTT, the binding signal was 2.89 z-score.
In the case of CAGAAAAAGAAGTGAAACTA, the binding signal is reported as 44 z-score.
Work on AAAAAAAGGAAATGACAGTA yielded a binding signal of -0.111 z-score.
Work on CTTCCAGGGAAGTGAAAGCA yielded a binding signal of 6.27 z-score.
For GAAGACAGGAAGTGAAACTT, the binding signal was 50.9 z-score.
For GCCTAGGGGAACTGAAACTG, the binding signal was 21.2 z-score.
In the case of AAGAAAAGGAAATGAAAGTA, the binding signal is reported as 9.44 z-score.
For TGAAACAGGAAGAGAAACCA, the binding signal was 5.57 z-score.
Sequence AAAAAAAGGGAATGAAAGTA has a binding signal of 3.64 z-score.
Work on CTAGCAGGGAACTGAAACTC yielded a binding signal of 11.4 z-score.
Sequence GATAAGAGGAACCGAAAGCT has a binding signal of 19.3 z-score.
Work on TAAAGGAGGAACTGAAATCA yielded a binding signal of 1.35 z-score.
CCCAGAGGGAAGTGAAACCA was tested, and the binding signal was 43.4 z-score.
In the case of ACAAACGGGAAGTGAAAGCT, the binding signal is reported as 17.6 z-score.
Sequence TTGAGGAGGAAGTGAAACTG has a binding signal of 68.6 z-score.
CTGGCAGGGAACTGAAATTC showed a binding signal of -0.476 z-score.
In the case of TGGCAGAGGAAGTGAAAGTA, the binding signal is reported as 28.7 z-score.
For ATCTTAGGGAACTGAAACCC, the binding signal was 8.73 z-score.
Sequence TGAAGCAGGAAGTGAAACCA has a binding signal of 59.6 z-score.
